From the supplement of paper PMC3334620
Over roughly 33,000 sequences, “E-score (-0.5 to 0.5)” has its median near -0.012; the highest 2% begin near 0.29. Some of the results follow.

Biological target: T1, Ybr033w (UniProt P38073)
T1 sequence: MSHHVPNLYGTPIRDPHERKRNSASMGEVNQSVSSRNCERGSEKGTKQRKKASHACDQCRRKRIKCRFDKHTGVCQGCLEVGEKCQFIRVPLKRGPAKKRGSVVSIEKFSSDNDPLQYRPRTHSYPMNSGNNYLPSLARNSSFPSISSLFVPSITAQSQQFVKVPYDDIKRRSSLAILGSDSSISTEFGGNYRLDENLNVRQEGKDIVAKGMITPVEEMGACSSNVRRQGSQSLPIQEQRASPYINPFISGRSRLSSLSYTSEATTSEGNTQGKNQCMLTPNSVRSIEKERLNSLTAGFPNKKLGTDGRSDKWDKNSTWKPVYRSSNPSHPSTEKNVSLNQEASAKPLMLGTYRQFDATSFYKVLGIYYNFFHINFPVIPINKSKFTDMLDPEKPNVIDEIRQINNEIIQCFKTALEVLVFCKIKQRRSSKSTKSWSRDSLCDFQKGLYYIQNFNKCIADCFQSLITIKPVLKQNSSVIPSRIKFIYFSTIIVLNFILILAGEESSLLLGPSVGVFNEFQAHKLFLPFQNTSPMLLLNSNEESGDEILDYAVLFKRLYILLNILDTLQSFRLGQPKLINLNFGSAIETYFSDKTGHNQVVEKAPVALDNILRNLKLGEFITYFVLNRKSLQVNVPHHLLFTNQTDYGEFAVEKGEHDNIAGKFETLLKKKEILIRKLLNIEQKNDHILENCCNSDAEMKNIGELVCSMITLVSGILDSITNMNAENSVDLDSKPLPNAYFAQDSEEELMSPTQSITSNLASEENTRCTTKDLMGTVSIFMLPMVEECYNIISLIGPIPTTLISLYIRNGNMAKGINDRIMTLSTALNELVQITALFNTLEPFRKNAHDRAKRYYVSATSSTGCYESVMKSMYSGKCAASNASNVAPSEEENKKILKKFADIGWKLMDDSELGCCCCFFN
Assay: PBM E-score (8-mer binding enrichment) (E-score (-0.5 to 0.5)); higher = stronger / more preferred TF binding; most listed sequences are background and not binding sites
Details: protein concentration: 200 nM; construct: GST-full length
Method: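 Universal 'all 10-mer' protein binding microarrays (Agilent AMADID 015681) probed with GST-tagged S. cerevisiae TFs (full-length or DBD) made by in vitro transcription/translation (PURExpress), about 100-200 nM. Bound TF was detected with fluorescent anti-GST. Each ungapped 8-mer (which stands for itself and its reverse complement) is scored by the PBM enrichment score (E-score), a modified Wilcoxon-Mann-Whitney statistic from -0.5 to +0.5, computed with the Universal PBM Analysis Suite. Scale: above 0.35 generally sequence-specific binding.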

In order of falling “PBM E-score” value:
1. AATATTCC  0.45
2. AAATAATT  0.388
3. AATTAAAC  0.377
4. ATTTTGCG  0.275
5. TAGTAATA  0.241
6. ATGTTTAA  0.218
7. CATCAATA  0.201
8. CTTATTGA  0.201
9. CGTGTTAA  0.198
10. AGTAAAAA  0.193
11. ATCACAAA  0.189
12. GCTTTCAA  0.185
13. CCGTTAAA  0.182
14. CGACAGAA  0.181
15. AACATTAC  0.176
16. AAGCTTAT  0.143
17. ACCGATAT  0.14
18. CACGAATA  0.135
19. AACATCGA  0.134
20. CGAAACCA  0.133
21. AGATTCTA  0.106
22. GCAAGGAA  0.104
23. CCGTCGAG  0.102
24. AACAACAC  0.0909
25. AGAGAACG  0.0819
26. CCGAATGA  0.0806
27. ACTACCAT  0.0768
28. CAAAGTAC  0.074
29. ACAAACGC  0.0702
30. AATGAACC  0.0438
31. GAGTCTAA  0.0395
32. ATACTACG  0.0364
33. CTCGGTAA  0.029
34. CTCAGAAC  0.027
35. AGGCTTAG  0.0242
36. ATACTGTC  0.0114
37. AAGGGTTA  0.00598
38. CTATCCGC  0.00507
39. ATTGCTAG  -0.00031
40. GCAGGAGA  -0.00164
41. CGGCGCAC  -0.0026
42. GCTCTGTA  -0.00345
43. AAGAGACT  -0.0144
44. AGAAGTCA  -0.02
45. ACCCGTAT  -0.0227
46. CGCGAAAC  -0.0228
47. AGATATCT  -0.0256
48. AGCGTGGA  -0.0258
49. ACCACTTA  -0.0282
50. AGTAGGGA  -0.0323
51. CGTACGTA  -0.0378
52. AGCGCAGA  -0.0391
53. AGATGGGC  -0.0391
54. CAGCCGAA  -0.0479
55. AGTCCTTA  -0.049
56. CCATTCGG  -0.0494
57. CGGTTCAA  -0.0607
58. ATCTCCTC  -0.0758
59. CAATAGGA  -0.0861
60. CATCCGAG  -0.0881
61. CACAGCCG  -0.0957
62. AGCCTCAC  -0.111
63. GGCACACA  -0.112
64. ACAGGCTC  -0.113
65. ACCACCGT  -0.126
66. AGGCGCGC  -0.142
67. CTCCTGCA  -0.145
68. CGGCTACG  -0.146
69. ACGCCGAA  -0.154
70. ACTAGGGA  -0.159
71. CAGCCATC  -0.166
72. CTACGCTC  -0.166
73. CAGGTCGG  -0.175
74. ACAAAGGG  -0.181
75. AGCGGGCG  -0.206
76. CGAACCCG  -0.229
77. ACGGGCCT  -0.233
78. GGGGTAAC  -0.235
79. GGAGCTCA  -0.243
80. GCGTCTAC  -0.255
81. CGTGCCAC  -0.283
82. GCCAGGGA  -0.313
83. CACGGGAG  -0.33
84. GACCCAGC  -0.381
85. GCGCCCCC  -0.392
86. ACGGGGGG  -0.459
